In a collection of fitness landscapes (doi:10.1038/s41467-024-54723-y):
Over roughly 18,000 sequences, “TetR repression strength (sort-seq, GFP reporter)” has its median near 0.23; the highest 2% begin near 0.68. This is one part of the list.

Each sequence was assayed against TetR (class B, Tn10) (UniProt P04483) (assay: TetR repression strength (sort-seq, GFP reporter) (relative to tetO2 = 1); higher = stronger repression). Details: E. coli.
UniProt P04483, sequence (P04483 whole entry): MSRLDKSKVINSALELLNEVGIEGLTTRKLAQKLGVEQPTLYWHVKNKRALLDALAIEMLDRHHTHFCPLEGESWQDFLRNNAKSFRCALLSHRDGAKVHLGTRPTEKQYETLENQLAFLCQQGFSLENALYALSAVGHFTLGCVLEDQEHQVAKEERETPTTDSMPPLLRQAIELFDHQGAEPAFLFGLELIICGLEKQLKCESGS
Outline: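 Repression strength was calculated by subtracting the read-weighted mean bin from the top bin index plus one and dividing by the unaltered operator's value. The plasmid library was low-copy in E. coli SIG10-MAX, with eight randomized operator positions between a constitutive promoter and sfGFP and constitutive TetR. Cultures grew 5 h at 37 °C in LB containing 50 µg/mL chloramphenicol before 10^6 cells were sorted by FACS into 13 fluorescence bins, each sequenced on Illumina. Three independent transformations were averaged for members having ≥30 reads in all replicates and a CV ≤0.5.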
Work on TCCCTAGGAGTCAGCGAGA yielded a TetR repression strength of 0. For TCCCTTCTAGTCCTGGAGA, the TetR repression strength was 0.354. TCCCAAGTAGTGAAGGAGA was tested, and the TetR repression strength was 0.417. Sequence TCCCTGCGAGTGAAGGAGA has a TetR repression strength of 0.325. Sequence TCCCTCGGAGTAGACGAGA has a TetR repression strength of 0.198. For TCCCATAAAGTCATTGAGA, the TetR repression strength was 0.452. TCCCAACTAGTATGAGAGA was tested, and the TetR repression strength was 0.361. For TCCCTGATAGTTGGTGAGA, the TetR repression strength was 0.289. Sequence TCCCGTTAAGTCACGGAGA has a TetR repression strength of 0.18. With TCCCTTCGAGTTCGTGAGA the TetR repression strength was 0.32. With TCCCAGTAAGTAGTAGAGA the TetR repression strength was 0.213. TCCCCCACAGTGGGTGAGA showed a TetR repression strength of 0.105. TCCCCGAGAGTTAGCGAGA gave a TetR repression strength of 0.172. Work on TCCCCGGGAGTAGAGGAGA yielded a TetR repression strength of 0.192. With TCCCCGCGAGTGCTTGAGA the TetR repression strength was 0.0403. Sequence TCCCCATGAGTACAAGAGA has a TetR repression strength of 0.341. TCCCACCTAGTTGCTGAGA was tested, and the TetR repression strength was 0.36. TCCCTTTCAGTCGAGGAGA showed a TetR repression strength of 0.369. With TCCCGCGAAGTGCGTGAGA the TetR repression strength was 0.0329. Work on TCCCGCTAAGTGGTGGAGA yielded a TetR repression strength of 0.192. With TCCCATTAAGTTTGCGAGA the TetR repression strength was 0.273. Sequence TCCCATGAAGTTTGCGAGA has a TetR repression strength of 0.031. TCCCCTTGAGTTGAAGAGA gave a TetR repression strength of 0.256. TCCCTACTAGTATATGAGA was tested, and the TetR repression strength was 0.44. TCCCCTGTAGTGGCAGAGA gave a TetR repression strength of 0.106. TCCCTGGGAGTACCGGAGA gave a TetR repression strength of 0.421. For TCCCTGATAGTTGGAGAGA, the TetR repression strength was 0.258. For TCCCTTCAAGTTATGGAGA, the TetR repression strength was 0.448. TCCCGGTGAGTTGAAGAGA gave a TetR repression strength of 0.275. For TCCCAAAGAGTACAAGAGA, the TetR repression strength was 0.43. With TCCCATTGAGTCAGAGAGA the TetR repression strength was 0.205. For TCCCAGATAGTCGTGGAGA, the TetR repression strength was 0.108. With TCCCTAGTAGTAAACGAGA the TetR repression strength was 0.187. For TCCCTGAGAGTAGGAGAGA, the TetR repression strength was 0.263. For TCCCCTAAAGTTAGAGAGA, the TetR repression strength was 0.535. Work on TCCCTTATAGTGTCGGAGA yielded a TetR repression strength of 0.12. Work on TCCCTCTCAGTATATGAGA yielded a TetR repression strength of 0.377. Work on TCCCGGGAAGTCGGCGAGA yielded a TetR repression strength of 0.239. With TCCCTTCCAGTGTGGGAGA the TetR repression strength was 0.139. Work on TCCCAGGCAGTTTCAGAGA yielded a TetR repression strength of 0.104. With TCCCGGGGAGTAAGCGAGA the TetR repression strength was 0.195. With TCCCGGGGAGTCGAAGAGA the TetR repression strength was 0.114. TCCCCGCCAGTAGCTGAGA was tested, and the TetR repression strength was 0.39. TCCCTCAAAGTGGTAGAGA gave a TetR repression strength of 0.15. Work on TCCCTGTGAGTGGGAGAGA yielded a TetR repression strength of 0.103. TCCCGTCGAGTTCTCGAGA was tested, and the TetR repression strength was 0. TCCCTTTTAGTGAATGAGA was tested, and the TetR repression strength was 0.889. In the case of TCCCTTCGAGTATTGGAGA, the TetR repression strength is reported as 0.417. Work on TCCCCGTGAGTTCAGGAGA yielded a TetR repression strength of 0.268. For TCCCGTCGAGTAAGTGAGA, the TetR repression strength was 0.219. For TCCCGGTAAGTTGGGGAGA, the TetR repression strength was 0.323. With TCCCCACCAGTCCCCGAGA the TetR repression strength was 0.394. With TCCCGTCAAGTGGTTGAGA the TetR repression strength was 0.152. TCCCAGGTAGTTGCGGAGA showed a TetR repression strength of 0.158. TCCCACGTAGTCAACGAGA gave a TetR repression strength of 0.604. TCCCGTTTAGTTAACGAGA showed a TetR repression strength of 0.325. TCCCTGTAAGTGGAGGAGA gave a TetR repression strength of 0.232. In the case of TCCCTTGTAGTCTAGGAGA, the TetR repression strength is reported as 0.222. For TCCCAGCCAGTTCGCGAGA, the TetR repression strength was 0.374. TCCCGCACAGTTTGCGAGA gave a TetR repression strength of 0.296. For TCCCTGTCAGTACTAGAGA, the TetR repression strength was 0.596. TCCCTAGCAGTCAGAGAGA gave a TetR repression strength of 0.0683. TCCCAGGAAGTTGGCGAGA showed a TetR repression strength of 0.222. Work on TCCCATAGAGTCGGTGAGA yielded a TetR repression strength of 0.178. TCCCTGTCAGTTCGCGAGA showed a TetR repression strength of 0.0983. For TCCCCTCCAGTTACCGAGA, the TetR repression strength was 0.315. TCCCTAGAAGTGGAGGAGA was tested, and the TetR repression strength was 0.498. For TCCCTTGTAGTAATAGAGA, the TetR repression strength was 0.0851. Sequence TCCCAAATAGTGGAAGAGA has a TetR repression strength of 0.214. With TCCCGGCCAGTATTGGAGA the TetR repression strength was 0.164. TCCCAACTAGTTAGCGAGA was tested, and the TetR repression strength was 0.415. For TCCCAGAGAGTACCCGAGA, the TetR repression strength was 0.212. For TCCCAGATAGTCAGGGAGA, the TetR repression strength was 0.335. Work on TCCCTGGGAGTGATCGAGA yielded a TetR repression strength of 0.154. TCCCCAACAGTTTTAGAGA showed a TetR repression strength of 0.419. TCCCTTCGAGTTATGGAGA was tested, and the TetR repression strength was 0.35. In the case of TCCCAACCAGTATTCGAGA, the TetR repression strength is reported as 0.305. Work on TCCCCACGAGTCCGTGAGA yielded a TetR repression strength of 0.293. TCCCGTCTAGTCGGTGAGA gave a TetR repression strength of 0.215. Sequence TCCCCACTAGTACGCGAGA has a TetR repression strength of 0.317. TCCCTGGCAGTTAGAGAGA gave a TetR repression strength of 0.258. TCCCTATCAGTGTTTGAGA gave a TetR repression strength of 0.767. TCCCCCGAAGTGATGGAGA gave a TetR repression strength of 0.357. TCCCCTTTAGTTGTCGAGA showed a TetR repression strength of 0.162. TCCCCACTAGTAGGGGAGA showed a TetR repression strength of 0.133. TCCCAACGAGTAGGAGAGA gave a TetR repression strength of 0.168. For TCCCGAGTAGTTGGAGAGA, the TetR repression strength was 0.316. In the case of TCCCAGTGAGTCAACGAGA, the TetR repression strength is reported as 0.509. TCCCGAGCAGTGGTGGAGA was tested, and the TetR repression strength was 0.167. Work on TCCCACTCAGTGCATGAGA yielded a TetR repression strength of 0.218. With TCCCTTGTAGTTGGTGAGA the TetR repression strength was 0.232. TCCCGGTGAGTGAACGAGA showed a TetR repression strength of 0.819. Work on TCCCGCGAAGTTTTAGAGA yielded a TetR repression strength of 0.269. For TCCCACGAAGTAGCGGAGA, the TetR repression strength was 0.192. In the case of TCCCGCCCAGTAGTAGAGA, the TetR repression strength is reported as 0.323. TCCCGAAGAGTGGGCGAGA was tested, and the TetR repression strength was 0.432. TCCCGGCGAGTAAGGGAGA showed a TetR repression strength of 0.0421. TCCCCTTAAGTCTGAGAGA was tested, and the TetR repression strength was 0.263. With TCCCAGGAAGTCTGTGAGA the TetR repression strength was 0.115. In the case of TCCCGCATAGTGTTCGAGA, the TetR repression strength is reported as 0.175. With TCCCGGTAAGTGTCCGAGA the TetR repression strength was 0.392. With TCCCCCTAAGTGATCGAGA the TetR repression strength was 0.494. Sequence TCCCGGGGAGTTAATGAGA has a TetR repression strength of 0.944. TCCCAACGAGTTTTCGAGA showed a TetR repression strength of 0.244. Work on TCCCCTAAAGTGAAGGAGA yielded a TetR repression strength of 0.721. Work on TCCCATGTAGTATAGGAGA yielded a TetR repression strength of 0.117. TCCCGCGCAGTCATTGAGA showed a TetR repression strength of 0.207. In the case of TCCCACGCAGTCGTTGAGA, the TetR repression strength is reported as 0.338. TCCCTTTCAGTTACAGAGA gave a TetR repression strength of 0.363. TCCCTTCCAGTAATAGAGA gave a TetR repression strength of 0.444. TCCCGGAGAGTAGGCGAGA showed a TetR repression strength of 0.184. Work on TCCCGAGTAGTATGTGAGA yielded a TetR repression strength of 0.223. Work on TCCCAACAAGTATCTGAGA yielded a TetR repression strength of 0.112. In the case of TCCCATAAAGTCCGTGAGA, the TetR repression strength is reported as 0.338. For TCCCAGAGAGTGAGTGAGA, the TetR repression strength was 0.188. For TCCCGCGCAGTGATTGAGA, the TetR repression strength was 0.444. With TCCCATCGAGTCATCGAGA the TetR repression strength was 0.229. For TCCCATAAAGTTCATGAGA, the TetR repression strength was 0.36. In the case of TCCCGCGGAGTCTTGGAGA, the TetR repression strength is reported as 0.21. In the case of TCCCAGTAAGTACACGAGA, the TetR repression strength is reported as 0.213. In the case of TCCCTGATAGTGGTAGAGA, the TetR repression strength is reported as 0.065. TCCCAGAAAGTGGATGAGA was tested, and the TetR repression strength was 0.0183. With TCCCGGCAAGTAAGCGAGA the TetR repression strength was 0.0864. Sequence TCCCATTGAGTACCCGAGA has a TetR repression strength of 0.414. With TCCCGGTTAGTCGTGGAGA the TetR repression strength was 0.199. TCCCTTCTAGTCGTCGAGA was tested, and the TetR repression strength was 0.397. TCCCGGTAAGTCGGGGAGA showed a TetR repression strength of 0.171. In the case of TCCCGTCAAGTTATCGAGA, the TetR repression strength is reported as 0.21. For TCCCGTGTAGTGAATGAGA, the TetR repression strength was 0.204. In the case of TCCCACAAAGTGGCCGAGA, the TetR repression strength is reported as 0.163.
